Test results: article PMC7819943, “Rice protein-binding microarrays: a tool to detect cis-acting elements near promoter regions in rice”
This is one part of the list.

The sequences below were run against T1, OsWOX13 (Oryza sativa, UniProt Q5QMM3 1-267) (assay: protein-binding microarray (RPBM); PBS, 2% BSA, 51.3 ng/ul salmon testes DNA, 50 uM zinc acetate, 200 nM TF, 25 C, 1 h; high values mean tight binding). Details: protein: recombinant; tags: N-terminal polyhistidine and DsRed monomer fusion (pET32a); label: CyDye5-dUTP incorporated in the synthesized complementary strand; 3' TTTTT single-stranded linker to array surface; dsDNA, one strand shown.
T1 sequence: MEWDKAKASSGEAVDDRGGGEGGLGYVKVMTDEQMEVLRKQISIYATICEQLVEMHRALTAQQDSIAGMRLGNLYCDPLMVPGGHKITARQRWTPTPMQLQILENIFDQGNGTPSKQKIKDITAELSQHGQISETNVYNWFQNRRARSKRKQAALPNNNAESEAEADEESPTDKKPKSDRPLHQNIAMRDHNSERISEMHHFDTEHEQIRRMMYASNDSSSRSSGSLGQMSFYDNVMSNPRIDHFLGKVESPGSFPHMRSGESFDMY
Summary of the method: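 A custom Agilent array was converted to double-stranded form by primer extension with Cy5-dUTP and blocked with 2% BSA. Protein at 200 nM in PBS with 2% BSA, salmon testes DNA and 50 µM zinc acetate was applied for 1 h at 25 °C, followed by washing. The proteins were polyhistidine–DsRed N-terminal fusions of transcription factors, expressed in E. coli BL21-CodonPlus and Ni–NTA-purified. The binding signal is per-feature fluorescence intensity (arbitrary units) from an Axon 4000B scanner.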

“CCCCTTGCTGTAATTACACAACACTCAGTTCATTTGCAATCGGAGTCACCTAGTGCAG” was tested. Which binding signal did it give?
The binding signal was 8620 fluorescence intensity (a.u.).

How did the binding signal turn out when “TTGTAATTGCAAAGGTAAAGGAGAGATGTACTTGATAATGCGGAGTCACCTAGTGCAG” was run?
Its binding signal is 8230 fluorescence intensity (a.u.).

With “CTTAAATTACTTCGTATTAACAAAGTGTGTTGCATCATAACGGAGTCACCTAGTGCAG” as the sequence, how does the binding signal read?
The binding signal was 13400 fluorescence intensity (a.u.).

For “GTTCACGATTTTGATAGACGCACATTGCAAGAAGGGTGATCGGAGTCACCTAGTGCAG”, which binding signal is on record?
Its binding signal is 3680 fluorescence intensity (a.u.).

“ACAAATTATGATGTTTTCTAATGAACATCATCGCCTGGTTCGGAGTCACCTAGTGCAG” was tested. Which binding signal did it give?
Its binding signal is 12900 fluorescence intensity (a.u.).

With “CGTACTCTTAGCAGATGATTGATTGCTTACTACCTTTTCCCGGAGTCACCTAGTGCAG” as the sequence, how does the binding signal read?
The binding signal was 30600 fluorescence intensity (a.u.).

“ATAAGATGATTTGCACTGGCGTAATGCATGTGAAATGCTACGGAGTCACCTAGTGCAG” was tested. Which binding signal did it give?
Its binding signal is 12300 fluorescence intensity (a.u.).

With “AAGCAATCAGCAGCACTCCATTCATCAGGAGGCACGCAACCGGAGTCACCTAGTGCAG” as the sequence, how does the binding signal read?
The binding signal was 3940 fluorescence intensity (a.u.).

“CAATAAATTAGGCTCAAACGGGTAACAGATTCGCTACTACCGGAGTCACCTAGTGCAG” was tested. Which binding signal did it give?
The binding signal was 16000 fluorescence intensity (a.u.).

For “AATTCAATCTTGTGGTTACCACAATATAGAGCACAATGGCCGGAGTCACCTAGTGCAG”, which binding signal is on record?
The binding signal was 3550 fluorescence intensity (a.u.).

For “TCGTAAATTTAAATCCATAGATTTAAGGAATACTTAGGCTCGGAGTCACCTAGTGCAG”, which binding signal is on record?
Its binding signal is 25900 fluorescence intensity (a.u.).

Which binding signal does the source give for “TATAAATTTTAGGTGTATAAATTTACTAAAATAGAAAAGTCGGAGTCACCTAGTGCAG” here?
The binding signal was 4120 fluorescence intensity (a.u.).

With “TTAAAATTTATATGTTAAATTATAGTGGTTTAAAATTTCACGGAGTCACCTAGTGCAG” as the sequence, how does the binding signal read?
Its binding signal is 8530 fluorescence intensity (a.u.).

“AGAAATTGATTCGTCGAGGATATTGATCTATTAGTAAATGCGGAGTCACCTAGTGCAG” was tested. Which binding signal did it give?
Its binding signal is 36700 fluorescence intensity (a.u.).

“GTGGTGGGATTTGGAACTGGAACCATGTGGTAGCATCTAGCGGAGTCACCTAGTGCAG” was tested. Which binding signal did it give?
The binding signal was 4980 fluorescence intensity (a.u.).

How did the binding signal turn out when “TTGTGATTTCTCGCGACCAAGCCAAACCTGTTAACTGGAACGGAGTCACCTAGTGCAG” was run?
The binding signal was 6160 fluorescence intensity (a.u.).

“CATAATTTTACCGGAGTTTCTGCTACTAGCAGTGATGGGCCGGAGTCACCTAGTGCAG” was tested. Which binding signal did it give?
The binding signal was 10900 fluorescence intensity (a.u.).

How did the binding signal turn out when “GTTCGGTTCCATCAATCAAATCTAGCTAACCATGCCGGCACGGAGTCACCTAGTGCAG” was run?
The binding signal was 18600 fluorescence intensity (a.u.).

Which binding signal does the source give for “CTAAATCACCTTACATCATTAGAATAACTTAAATCTGATTCGGAGTCACCTAGTGCAG” here?
The binding signal was 4350 fluorescence intensity (a.u.).

For “TACGTGTGTTGATTTCCGTGACATATGCATAAATTTCTTTCGGAGTCACCTAGTGCAG”, which binding signal is on record?
Its binding signal is 3870 fluorescence intensity (a.u.).

“CTATAATTTAAAGGACTTAGTTTATGATAGTGATGGGTGTCGGAGTCACCTAGTGCAG” was tested. Which binding signal did it give?
The binding signal was 26600 fluorescence intensity (a.u.).

How did the binding signal turn out when “ATGCTAAAATGATTTATATTATATTTACGATCGAAGGAAGCGGAGTCACCTAGTGCAG” was run?
The binding signal was 16800 fluorescence intensity (a.u.).

For “TAATCACGTTAATTGCATGGCTTAATGCCCTTGATAAATTCGGAGTCACCTAGTGCAG”, which binding signal is on record?
The binding signal was 11200 fluorescence intensity (a.u.).

With “AACTGAATTTGCCTGATGACAGCCGTATCCACCCAGTTGTCGGAGTCACCTAGTGCAG” as the sequence, how does the binding signal read?
Its binding signal is 6210 fluorescence intensity (a.u.).

“AATAATTAATTTCTGAGAAAACGACAGGTCATTTTACTTACGGAGTCACCTAGTGCAG” was tested. Which binding signal did it give?
Its binding signal is 29700 fluorescence intensity (a.u.).

“AAGTTGATGTGATGGAAAAGGACTGAAGTTTGGATTCAAACGGAGTCACCTAGTGCAG” was tested. Which binding signal did it give?
The binding signal was 7380 fluorescence intensity (a.u.).

With “ACGTGATGATCATTAACGCAGGAAGGGGCTACTATAATCACGGAGTCACCTAGTGCAG” as the sequence, how does the binding signal read?
The binding signal was 6920 fluorescence intensity (a.u.).

With “TGGAAGAAATTGATGTAATGCTCTGGCCTTTTCATGGATACGGAGTCACCTAGTGCAG” as the sequence, how does the binding signal read?
The binding signal was 8100 fluorescence intensity (a.u.).

With “CTTGATTGACCTTCACCGGCGCCGGCGCCGGCGCCGCCGTCGGAGTCACCTAGTGCAG” as the sequence, how does the binding signal read?
The binding signal was 11900 fluorescence intensity (a.u.).

With “AGCTATTAGTGTATGATTAATTAAGTTTTAATTATTTCAACGGAGTCACCTAGTGCAG” as the sequence, how does the binding signal read?
The binding signal was 19000 fluorescence intensity (a.u.).

Which binding signal does the source give for “TTAATTAGAATTAAACCTCGGTACATACAATATGTACTTACGGAGTCACCTAGTGCAG” here?
Its binding signal is 6350 fluorescence intensity (a.u.).

“GTTGACAATATTTGATAGGTTGTCCAATGGTATCGATTATCGGAGTCACCTAGTGCAG” was tested. Which binding signal did it give?
The binding signal was 10200 fluorescence intensity (a.u.).

How did the binding signal turn out when “ACTTCTCCCAATCAAACCCGCCGCCGCCGCCGCCACTCCTCGGAGTCACCTAGTGCAG” was run?
The binding signal was 4260 fluorescence intensity (a.u.).

“TAACAATCACAACTTCTTTCATAATCTTCAGCTTTCCAAACGGAGTCACCTAGTGCAG” was tested. Which binding signal did it give?
Its binding signal is 4260 fluorescence intensity (a.u.).

For “AAGATTATAAATGGTTGTGATTGATTAAGACAAGAAAATACGGAGTCACCTAGTGCAG”, which binding signal is on record?
Its binding signal is 22100 fluorescence intensity (a.u.).

How did the binding signal turn out when “GATAAGATTGGGCCGTCCTTCCCGAAGTCAAATCAAGGCCCGGAGTCACCTAGTGCAG” was run?
Its binding signal is 3330 fluorescence intensity (a.u.).

How did the binding signal turn out when “TCACATTTATTTTAATTATCAATTTTCTTTTCCAAAATGGCGGAGTCACCTAGTGCAG” was run?
The binding signal was 21200 fluorescence intensity (a.u.).

Which binding signal does the source give for “TCTTGATGAATTTCAACCAAAAGCACGTCACTATATGCAACGGAGTCACCTAGTGCAG” here?
Its binding signal is 4130 fluorescence intensity (a.u.).

“ATCCTTATTTGATTCCTGATCAAATTAATACTGCTGCTTTCGGAGTCACCTAGTGCAG” was tested. Which binding signal did it give?
The binding signal was 3200 fluorescence intensity (a.u.).

“CTAGTTAATTAAATAATCACATATATGATCTATGAATATTCGGAGTCACCTAGTGCAG” was tested. Which binding signal did it give?
Its binding signal is 47500 fluorescence intensity (a.u.).

How did the binding signal turn out when “TCCATTTGATTACTCGTAACCATCTCCATTCTTTCATCCTCGGAGTCACCTAGTGCAG” was run?
The binding signal was 17800 fluorescence intensity (a.u.).

Which binding signal does the source give for “TCATTTCATATAATTATTCTTTTAATAGCAAAACATGTAGCGGAGTCACCTAGTGCAG” here?
Its binding signal is 5910 fluorescence intensity (a.u.).
